This test concerns V-C8 + BRCA2 (BRCA2-proficient hamster cells). Description: normalised cell viability (fraction of plate median); higher = more viable cells (less toxic). The following applies: 5 µM. In short, it runs like this: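 Cell viability was measured with a resazurin assay, normalised to the plate median (modified robust per cent of sample) and averaged over triplicate wells. Hamster V-C8 cells lacking BRCA2 and V-C8 cells with BRCA2 restored were seeded in 96-well plates. After 24 h, library drugs from 10 mM DMSO stocks were added at a final 5 μM in 100 μl medium and left for 3 days (screen 1) or 6 days (screen 2), with solvent-only wells alongside.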

Counter-ions that a name gives are not always drawn. ± gives the standard deviation of the averaged measurements. In all, about 1,300 compounds were measured (“normalised cell viability”: median about 1, lowest 2% from about 0.15 on). The list shows a part of the results.

For `C#CCN(C)Cc1ccccc1` [Pargyline hydrochloride], the normalised cell viability runs as follows: (treatment time: 3 days) 0.961 ± 0.019; (treatment time: 6 days) 1.01 ± 0.034.

Take `COc1ccc2cc(CCC(C)=O)ccc2c1` [Nabumetone]: the normalised cell viability (treatment time: 3 days) was determined as 1.05 ± 0.12 and the normalised cell viability (treatment time: 6 days) came to 1.02 ± 0.044.

As for `CCn1cc(C(=O)O)c(=O)c2ccc(C)nc21` [Nalidixic acid sodium salt], the normalised cell viability (treatment time: 3 days) worked out at 1.05 ± 0.021 and the normalised cell viability (treatment time: 6 days) stood at 0.999 ± 0.035.

For the compound `Cc1ccc(S(=O)(=O)NC(=O)NN2CC3CCCC3C2)cc1` (stereo unspecified) [Gliclazide], the normalised cell viability by setting is: (treatment time: 3 days) 1.04 ± 0.059; (treatment time: 6 days) 1.05 ± 0.059.

For `CC(=O)N[C@@H](CC(=O)N[C@@H](CCC(=O)O)C(=O)O)C(=O)O` [Spaglumic acid], the normalised cell viability (treatment time: 3 days) is 1.06 ± 0.04 and the normalised cell viability (treatment time: 6 days) came out at 1.1 ± 0.091.

In the case of `CCn1cc(C(=O)O)c(=O)c2cnc(N3CCNCC3)nc21` [Pipemidic acid], the normalised cell viability turned out to be 0.998 ± 0.024 (treatment time: 3 days) and 1.12 ± 0.07 (treatment time: 6 days).

For `COc1cc2nc(N3CCN(C(=O)c4ccco4)CC3)nc(N)c2cc1OC` [Prazosin hydrochloride], the normalised cell viability is, setting by setting: (treatment time: 3 days) 1.03 ± 0.011; (treatment time: 6 days) 0.883 ± 0.022.

Consider `COc1nc(C)nc(Cl)c1NC1=NCCN1` [Moxonidine], for which the normalised cell viability by setting is: (treatment time: 3 days) 1.014 ± 0.0037; (treatment time: 6 days) 0.9963 ± 0.0028.

With `Cc1ccc(C(=O)c2cc(O)c(O)c([N+](=O)[O-])c2)cc1` [Tolcapone], the normalised cell viability came out at 0.954 ± 0.035 (treatment time: 3 days) and 1.06 ± 0.028 (treatment time: 6 days).

`NC[C@H]1O[C@H](O[C@H]2[C@H](O[C@@H]3O[C@H](CO)[C@@H](O)[C@H]3O)[C@@H](O)[C@H](N)C[C@@H]2N)[C@H](N)[C@@H](O)[C@@H]1O` [Ribostamycin sulfate salt]: the normalised cell viability is, setting by setting: (treatment time: 3 days) 1.05 ± 0.03; (treatment time: 6 days) 1.02 ± 0.097.

In the case of `COc1ccc2[nH]cc(CCNC(C)=O)c2c1` [Melatonin], the normalised cell viability runs as follows: (treatment time: 3 days) 1.22 ± 0.097; (treatment time: 6 days) 0.928 ± 0.048.

Take `COc1ccc(C(=O)NCc2cccnc2)cc1C(=O)NCc1cccnc1` [Picotamide monohydrate]: the normalised cell viability by setting is: (treatment time: 3 days) 1.12 ± 0.059; (treatment time: 6 days) 1.13 ± 0.067.

On to `O=C(NCCNCC(O)COc1ccc(O)cc1)N1CCOCC1` (stereo unspecified) [Xamoterol hemifumarate], for which the normalised cell viability runs as follows: (treatment time: 3 days) 1.02 ± 0.044; (treatment time: 6 days) 1.25 ± 0.17.

Consider `CCN(Cc1ccncc1)C(=O)C(CO)c1ccccc1` (stereo unspecified) [Tropicamide], for which the normalised cell viability stood at 1.065 ± 0.0083 (treatment time: 3 days) and 1.01 ± 0.043 (treatment time: 6 days).

Take `CN(C)CCOC1=Cc2ccccc2Sc2ccc(Cl)cc21` [Zotepine]: the normalised cell viability (treatment time: 3 days) was determined as 0.591 ± 0.05 and the normalised cell viability (treatment time: 6 days) was 0.679 ± 0.027.

On to `OC(CCN1CCCCC1)(c1ccccc1)C1CC2C=CC1C2` (stereo unspecified) [Biperiden hydrochloride], for which the normalised cell viability reads like this: (treatment time: 3 days) 0.993 ± 0.031; (treatment time: 6 days) 1.01 ± 0.062.

Consider `CCN(CC)CC#CCOC(=O)C(O)(c1ccccc1)C1CCCCC1` (stereo unspecified) [Oxybutynin chloride], for which the normalised cell viability is 1.07 ± 0.047 (treatment time: 3 days) and 1.02 ± 0.031 (treatment time: 6 days).

On to `Cc1ncc([N+](=O)[O-])n1CCO` [Metronidazole], for which the normalised cell viability was 0.893 ± 0.04 (treatment time: 3 days) and 1.02 ± 0.032 (treatment time: 6 days).

As to `CN1C2CCCC1CC(NC(=O)c1nn(C)c3ccccc13)C2` (stereo unspecified) [Granisetron], the normalised cell viability (treatment time: 3 days) turned out to be 1.03 ± 0.036 and the normalised cell viability (treatment time: 6 days) was determined as 1.01 ± 0.017.

For the compound `CC(C)N1CCN(c2ccc(OCC3COC(Cn4cncn4)(c4ccc(Cl)cc4Cl)O3)cc2)CC1` (stereo unspecified) [Terconazole], the normalised cell viability runs as follows: (treatment time: 3 days) 1.26 ± 0.035; (treatment time: 6 days) 1.3 ± 0.11.

On to `O=C1CN2Cc3c(ccc(Cl)c3Cl)N=C2N1` [Anagrelide], for which the normalised cell viability is, setting by setting: (treatment time: 3 days) 1.02 ± 0.018; (treatment time: 6 days) 1.03 ± 0.049.

Regarding `CC(C)NCC(O)COc1ccc(COCCOC(C)C)cc1` (stereo unspecified) [Bisoprolol fumarate], the normalised cell viability runs as follows: (treatment time: 3 days) 0.973 ± 0.017; (treatment time: 6 days) 1.19 ± 0.03.

`Nc1nc(=S)c2ncn([C@@H]3O[C@H](CO)[C@@H](O)[C@H]3O)c2[nH]1` [Thioguanosine]: the normalised cell viability (treatment time: 3 days) amounted to 0.452 ± 0.015 and the normalised cell viability (treatment time: 6 days) stood at 0.404 ± 0.0073.

As to `CC(=O)N[C@@H](CC(C)C)C(=O)O` [N-Acetyl-L-leucine], the normalised cell viability by setting is: (treatment time: 3 days) 1.04 ± 0.015; (treatment time: 6 days) 1.11 ± 0.046.

In the case of `Nc1nc(=O)c2nc(CNc3ccc(C(=O)N[C@@H](CCC(=O)O)C(=O)O)cc3)cnc2[nH]1` [Folic acid], the normalised cell viability (treatment time: 3 days) is 1 ± 0.021 and the normalised cell viability (treatment time: 6 days) worked out at 1.03 ± 0.1.

On to `Nc1nc(F)nc2c1ncn2[C@@H]1O[C@H](CO)[C@@H](O)[C@@H]1O` [Fludarabine], for which the normalised cell viability was determined as 1 ± 0.071 (treatment time: 3 days) and 1.03 ± 0.1 (treatment time: 6 days).

For the compound `CC[C@H]1OC(=O)[C@H](C)[C@@H](O[C@H]2C[C@@](C)(OC)[C@@H](O)[C@H](C)O2)[C@H](C)[C@@H](O[C@@H]2O[C@H](C)C[C@H](N(C)C)[C@H]2O)[C@](C)(O)C[C@@H](C)/C(=N\OCOCCOC)[C@H](C)[C@@H](O)[C@]1(C)O` [Roxithromycin], the normalised cell viability (treatment time: 3 days) stood at 1 ± 0.025 and the normalised cell viability (treatment time: 6 days) came out at 0.979 ± 0.019.

On to `Clc1ccc(C(Cn2ccnc2)OCc2c(Cl)cccc2Cl)c(Cl)c1` (stereo unspecified) [Isoconazole], for which the normalised cell viability is, setting by setting: (treatment time: 3 days) 1.22 ± 0.042; (treatment time: 6 days) 1.18 ± 0.02.

As to `NC(=O)N1c2ccccc2C=Cc2ccccc21` [Carbamazepine], the normalised cell viability runs as follows: (treatment time: 3 days) 1.04 ± 0.016; (treatment time: 6 days) 0.9944 ± 0.0025.

On to `CN(C)CCN(Cc1cccs1)c1ccccn1` [Methapyrilene hydrochloride], for which the normalised cell viability turned out to be 1.12 ± 0.021 (treatment time: 3 days) and 1.04 ± 0.042 (treatment time: 6 days).

Regarding `COc1c(O[C@@H]2O[C@H](CO)[C@@H](O)[C@H](O)[C@H]2O)cc2c(c1OC)-c1ccc(SC)c(=O)cc1[C@@H](NC(C)=O)CC2` [Thiocolchicoside], the normalised cell viability turned out to be 1.01 ± 0.027 (treatment time: 3 days) and 1.06 ± 0.022 (treatment time: 6 days).

As to `O=C(Cn1ccnc1[N+](=O)[O-])NCCO` [Etanidazole], the normalised cell viability reads like this: (treatment time: 3 days) 1.02 ± 0.091; (treatment time: 6 days) 1.04 ± 0.035.

Consider `CO[C@H]1/C=C/O[C@@]2(C)Oc3c(C)c(O)c4c(c3C2=O)C2=NC3(CCN(CC(C)C)CC3)NC2=C(NC(=O)/C(C)=C\C=C\[C@H](C)[C@H](O)[C@@H](C)[C@@H](O)[C@@H](C)[C@H](OC(C)=O)[C@@H]1C)C4=O` [Rifabutin], for which the normalised cell viability is, setting by setting: (treatment time: 3 days) 1.01 ± 0.14; (treatment time: 6 days) 0.91 ± 0.043.
